Test results published in the supplement of paper PMC3334620.
In all, about 33,000 sequences were measured (“E-score (-0.5 to 0.5)”: median about -0.01, highest 2% from about 0.26 on). The list shows a part of the results.

Each sequence was assayed against Ste12 (UniProt P13574) (assay: PBM E-score (8-mer binding enrichment) (E-score (-0.5 to 0.5)); higher = stronger / more preferred TF binding; most listed sequences are background and not binding sites). Settings: protein concentration: 200 nM; construct: GST-DNA-binding domain.
In short: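 Detection of bound protein used fluorescent anti-GST, with scans normalised by masliner. The proteins were GST-tagged yeast transcription factors applied at about 100-200 nM to universal all-10-mer Agilent arrays made double-stranded by primer extension. Each ungapped eight-base word, pooled with its reverse complement, was scored with an E-score from the Universal PBM Analysis Suite.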

Row | Sequence | PBM E-score
1 | ACCCCACG | -0.159
2 | ATCGGAAC | 0.0411
3 | CAGGCAAA | 0.0381
4 | AAGTCGCC | -0.147
5 | GTGGGCAA | -0.097
6 | AGTCCTCG | -0.0399
7 | AGGCCTGC | -0.246
8 | GGAGCGGA | -0.151
9 | CGGGAACG | -0.063
10 | ACCCCGAG | -0.0693
11 | ATCACACA | -0.0458
12 | CATCGACA | -0.118
13 | AAGTGTGG | 0.00615
14 | CATGAATA | 0.0352
15 | AACGCCTA | 0.118
16 | ACACACTC | 0.0305
17 | GACGCATA | 0.15
18 | ACTGACGG | -0.128
19 | ACTCCCTC | -0.153
20 | ACCATTGG | -0.0456
21 | CCGTCGGC | -0.0522
22 | ACCCAAGA | 0.00479
23 | AGCGAGCC | -0.0362
24 | AGAGAGTC | -0.191
25 | GACGTACA | -0.201

Row | Sequence | PBM E-score
26 | GTTTCAGA | 0.484
27 | AACCGCCA | 0.0588
28 | CCAGTCAC | -0.00691
29 | CTGCGGCA | -0.028
30 | CGTTACCC | -0.051
31 | GAAATAGC | 0.0443
32 | CAACCCGG | -0.135
33 | TGATCAAA | 0.156
34 | ATAGTAAA | 0.169
35 | CTCAGAAG | -0.0398
36 | ACGGGTGG | 0.172
37 | CATAACAA | 0.192
38 | CCACCTAA | 0.163
39 | AGACCGCT | -0.0963
40 | ATGCTAAC | -0.154
41 | ACTCCGAC | 0.118
42 | AGCTCTGG | -0.169
43 | CGCGCACA | 0.125
44 | AAAATGTC | 0.188
45 | CATCGAGA | -0.0275
46 | CAATGGTG | -0.16
47 | ATGGTTCC | -0.0349
48 | GTGGGAGA | -0.164
49 | CGACCGAG | -0.113
50 | CAACTTGC | -0.0882

Row | Sequence | PBM E-score
51 | AAAATTGC | 0.141
52 | CTTCACCC | 0.0896
53 | TACAAGGA | 0.168
54 | GGCTCCTA | -0.212
55 | AAATTCTT | 0.111
56 | TATCTGCA | -0.126
57 | ACCTCCCG | 0.0252
58 | AATCCGGT | 0.148
59 | CAGGGGAC | -0.162
60 | CGATGGCG | -0.121
61 | AAGCCGGA | 0.108
62 | AACGTCGC | 0.00995
63 | CTTGAACA | 0.112
64 | CAAGAGCC | -0.00692
65 | TTGAGAAA | 0.231
66 | GCGGACCA | 0.0751
67 | ATGTAATA | 0.217
68 | CACTGGGC | -0.188
69 | GCTAATCC | 0.0211
70 | CAAGATCG | -0.0544
71 | CTGTGGAA | 0.0384
72 | CTGTAAGC | -0.134
73 | GGTGCATA | 0.0482
74 | AAACAATA | 0.274
75 | GTCTCGAA | 0.13

Row | Sequence | PBM E-score
76 | AGTCTCTC | -0.145
77 | ACGCTGCC | -0.108
78 | ATTGGCAG | -0.0606
79 | CAGCAAAG | 0.0508
80 | TATCTTGA | 0.0383
81 | TGCGCTAA | 0.224
82 | GCCGTTCC | 0.053
83 | GACTAGAC | -0.247
84 | CAAACACG | 0.17
85 | CAGCCCGC | -0.108
86 | GAAACCAC | 0.164
87 | ACGTGCAA | -0.102
88 | GTTACGAA | 0.0523
89 | CACACCGG | 0.0655
90 | CACACGCA | 0.0544
91 | CCTGGTAG | -0.00862
92 | CCTTATAC | 0.00361
93 | CAGTCACG | -0.146
94 | CCGGTGCG | 0.109
95 | CAGTGGTC | -0.231
96 | GGTCCTGA | -0.163
97 | GGTAACAC | 0.0298
98 | CCCGAACC | 0.0917
99 | CAAACCAG | 0.106
100 | CCTAAGCC | -0.145

Row | Sequence | PBM E-score
101 | ATATACCG | 0.123
102 | CGCAGCTA | -0.133
103 | AGTACACC | -0.00575
104 | TAATGCGA | 0.0398
105 | CTTTCACC | 0.0723
106 | ACTCCACT | 0.025
107 | CTGCCAGA | -0.15
108 | ACAGCTTG | -0.0148
109 | AATTTTCA | 0.165
110 | GACACTCA | -0.109
111 | CCACTCTA | -0.0143
112 | ACCGTCCG | -0.025
113 | AAATATTT | 0.0442
114 | CTGCTGGC | -0.245
115 | ACATCTCG | -0.06
116 | AGGCATTC | -0.075
117 | AAGGATGC | -0.188
118 | CCTGCTAG | -0.17
119 | AAGAATCC | 0.151
120 | CCATGCGA | 0.0417
121 | CCCGCCCC | 0.32
122 | ATCACTAA | 0.00159
123 | AATGAGTG | 0.0431
124 | ATGCGGTC | 0.0847
125 | CTGATCGC | -0.184

Row | Sequence | PBM E-score
126 | TAATATAA | 0.287
127 | GAAGCGCC | 0.177
128 | TAGCTTAA | -0.0132
129 | ACTATGCA | -0.018
130 | GCTGACTA | -0.174
131 | GACGCAAA | 0.0718
132 | ACGCACCG | 0.0733
133 | CGTTGCGA | 0.00386
134 | CTACTGAG | -0.123
135 | TCCAAAGA | 0.0392
136 | CCTCAATA | -0.103
137 | ATTACTGA | 0.0666
138 | GCGCTGAA | -0.0789
139 | AAGAAAAA | 0.158
140 | ATGACCTG | 0.115
141 | GGTTGTGA | 0.101
142 | GGCGTCTA | -0.0213
143 | TTAGACAA | 0.116
144 | AAGATGTG | 0.0624
145 | ACGCCCAC | 0.117
146 | GGACTACC | -0.198
147 | AGGTGTAC | -0.0483
148 | AGTTCCAT | -0.06
149 | AAACACCT | 0.104
150 | TATCGTGA | -0.0366

Row | Sequence | PBM E-score
151 | GAGTACCA | 0.0726
152 | GGTAAACC | -0.0553
153 | GCCATAAA | 0.058
154 | AATCCAAT | 0.094
155 | CCCAAGAA | 0.0156
156 | ATAACTCG | 0.162
157 | GTTATAAC | 0.139
158 | AATGCGAA | 0.0356
159 | GTACGTAA | -0.0604
160 | AACAGAGT | 0.173
161 | ACCTTACT | 0.124
162 | TAAGGCGA | 0.00976
163 | GATGGATA | 0.0412
164 | AGTTCAAG | 0.0102
165 | ACCATCTA | -0.162
166 | GCCTATGA | -0.215
167 | CCATACTC | 0.0988
168 | AAGTTGAA | 0.134
169 | CATTTGCA | -0.00909
170 | ATGTCTCG | -0.114
171 | AGAACCTA | -0.0451
172 | CGAGCTTC | 0.0482
173 | AGCGCGCA | 0.131
174 | AATCCCTC | 0.0988
175 | CCATACAG | -0.0334

Row | Sequence | PBM E-score
176 | ACCCCTGG | -0.181
177 | ACTATAGA | -0.0802
178 | AGCGGCAA | 0.0352
179 | GAGCCCCA | -0.204
180 | AATTGAAC | -0.0364
181 | ACCACCGG | -0.0277
182 | ACTCACTC | 0.00569
183 | CAGCAAGC | -0.251
184 | CACCACTC | -0.164
185 | GTCACGCA | -0.0567
186 | GCAGTGCC | -0.244
187 | ATATGTCA | 0.13
188 | CAAGGTGA | 0.121
189 | ATAACCGA | 0.128
190 | TGGAACCA | 0.136
191 | GGTCACGA | -0.00535
192 | CGGCAGAA | -0.022
193 | CCATTTGC | 0.061
194 | ACGAACCA | -0.00982
195 | CAAGTAAG | -0.0127
196 | AAACGATT | 0.165
197 | CAGCGAGG | -0.11
198 | GCATCTGA | -0.236
199 | GCCTATAC | -0.15
200 | AGATTCCT | -0.00654

Row | Sequence | PBM E-score
201 | CTGATGAA | 0.108
202 | AACCTGTC | -0.0511
203 | ATTCGACC | 0.0126
204 | CGCGTTCC | 0.0931
205 | TGTAATAA | 0.163
206 | CTACCAGA | 0.114
207 | ACGACACA | 0.105
208 | ATAGCTCG | -0.0872
209 | GAGTGAGA | -0.0902
210 | ATAGCCAT | -0.109
211 | AGTTGGGA | 0.157
212 | CGCAGCCA | -0.0553
213 | GTTTGCGA | 0.114
214 | CGCCGAAC | 0.101
215 | TCACAAGA | -0.0277
216 | ATGCGTAC | -0.153
217 | ACCGAGAA | 0.192
218 | CTCCTAAC | -0.181
219 | CTGTTTAC | 0.0415
